83 compounds from PubChem BioAssay AID1346428 (National Center for Advancing Translational Sciences (NCATS), 2018) can be followed below.

Hit rate of the full screen: of about 48,000 compounds, about 1,200 (2.5%) were called active. Another 2% or so got no clear call; they are omitted.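 How the source made its calls: active means activation of at least 60% and not above a set upper limit (about 1 call in 100 departs from these limits); inconclusive means activation of 40% to 60%, or above that upper limit; inactive means activation under 40%.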 Some of the results follow.

Chain of UniProt O75388 (O75388 whole entry, looked up): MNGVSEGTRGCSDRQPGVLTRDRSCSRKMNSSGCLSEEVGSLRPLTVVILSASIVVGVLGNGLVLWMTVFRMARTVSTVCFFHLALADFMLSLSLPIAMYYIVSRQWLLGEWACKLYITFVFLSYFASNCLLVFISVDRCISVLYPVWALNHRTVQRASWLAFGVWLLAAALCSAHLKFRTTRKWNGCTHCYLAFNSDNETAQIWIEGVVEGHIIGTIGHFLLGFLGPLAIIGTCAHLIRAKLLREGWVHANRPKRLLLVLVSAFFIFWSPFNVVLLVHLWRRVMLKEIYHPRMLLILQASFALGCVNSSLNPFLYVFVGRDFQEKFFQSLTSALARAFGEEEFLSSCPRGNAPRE

The target in this experiment is Probable G-protein coupled receptor 32 (Homo sapiens) (UniProt O75388). Put plainly: qHTS for Agonists of Human Resolvin D1 Receptor DRV1. The note with it: CHO-K1 GPR32 beta-arrestin PathHunter luminescence, 90 min; at 76.9 µM; active compounds read high; zero percent set by DMSO-only wells. In outline:
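Using DMSO wells as EC0, agonist-induced signal was taken as chemiluminescence from beta-Gal reconstituted upon beta-arrestin recruitment to GPR32 in CHO-K1 cells after 90 min compound treatment.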
In general terms: Quantitative high-throughput screening tests each substance at several concentrations.
With `COc1ccc(NC(=O)C(CC(C)C)NC(=O)C2CCCCC2)cc1` (stereo not drawn), the activation is inactive: -7.72%.

As for `CCOc1ccc(CN2CCc3nc(N4CCN(c5ccccn5)CC4)ncc3C2)cc1OC`, the activation is inactive: -26.9%. Next, `O=C(Cn1ncc2c3ccccc3n(Cc3ccccc3)c2c1=O)NC1CCCCCC1`: inactive: -2.44%; `Cc1ccc(NC(=O)Cn2c(-c3nonc3N)nc3ccccc32)c(Br)c1`: inactive: -15.8%; `CCCCOc1ccc(C2C(=O)N(C3CCCCC3)CC(=O)N2CCCC)cc1` (stereo not drawn): inactive: -2.95%. Next, `Cc1cc(C)cc(C(=O)N2CC(=O)Nc3ccc(Br)cc3C2c2ccccc2)c1` (stereo not drawn): inactive: -3.6%. Take `CCCCN(CC)CCCNC(=O)c1ccc2c(c1)NC(=O)CN2C`: the activation is inactive: -16.3%. For the compound `Cc1ccc(-n2ncc(C(=O)NCCCN3CCc4ccccc4C3)c2C2CCN(C(=O)OC(C)(C)C)CC2)c(C)c1`, the activation is inactive: -31.9%.

For `CCOC(=O)c1noc2ncn(CC(=O)Nc3ccccc3OC)c(=O)c12`, the activation is inactive: -4%. On to `COc1cccc(CNC(=O)CCc2c(C)c3ccc(O)c(C)c3oc2=O)c1`, for which the activation was inactive: 7.12%. Next, `Cc1ccc(OCCOCCn2c(-c3ccc(Cl)cc3)nc3ccccc3c2=O)cc1`: inactive: -3.48%. In the case of `COc1ccc2c(c1)CCc1c(C(=O)Nc3ccc(C#N)cc3)noc1-2`, the activation was inactive: 27.9%. Next, `COC(=O)c1c(C)[nH]c(C)c1C(=O)c1ccccc1Cc1ccccc1`: inactive: 3.34%. Next, `COc1cccc(CNC(=O)Cn2nc(N3CCN(c4ccccc4OC)CC3)ccc2=O)c1`: inactive: 7.68%. As to `COc1ccc(-n2c(SCc3ccccc3)nc3c([nH]c4ccccc43)c2=O)cc1`, the activation is inactive: -10.2%.

As for `Cc1c(Cl)cccc1NC(=O)C(C)n1c(=O)cc(C)c2c(C)nn(-c3ccccc3)c21` (stereo not drawn), the activation was inactive: -10.6%. Consider `COc1ccc(C)cc1NC(=O)CN1C(=O)COc2ccc(S(=O)(=O)N3CCC(C)CC3)cc21`, for which the activation was inactive: -22.5%. The same measure for `CCOc1ccc(-n2c(=O)c3c(C)c(C)sc3n(Cc3ccccc3C)c2=O)cc1`: inactive: 0.0294%; for `Cc1cn2c(=O)cc(COc3ccc(NC(=O)COc4ccccc4)cc3)nc2s1`: inactive: 2.4%; for `COc1cc(NC(=O)CN(c2cc(C)cc(C)c2)S(=O)(=O)c2c(C)[nH]c(=O)[nH]c2=O)cc(OC)c1`: inactive: 11.5%.

In the case of `C#CC(C)(CC)NC(=O)Cn1nnc(-c2ccc(OCc3c(F)cccc3Cl)cc2)n1` (stereo not drawn), the activation is inactive: -5.59%.

Take `O=C(CSc1ncc2c(n1)-c1ccccc1N(Cc1ccc(F)cc1)S2(=O)=O)NCCc1ccccc1`: the activation is inactive: -9.31%. With `Cc1cc(C)cc(C(=O)n2nc(C)c(S(=O)(=O)N3CCOCC3)c2C)c1`, the activation was inactive: 3.79%. For `Cc1ccc(-n2c(=O)c3ccc(C(=O)NCc4ccccc4Cl)cc3n(CC(=O)Nc3ccc(C)cc3C)c2=O)cc1`, the activation is inactive: -5.81%. Regarding `CCOC(=O)c1c(NC(=O)c2ccc(F)cc2)sc2c1CCC(CC)C2` (stereo not drawn), the activation was inactive: -16.1%. As to `CCOC(=O)c1cccc(NC(=O)[C@H](CSCc2ccccc2)N2Cc3ccccc3C2=O)c1`, the activation was inactive: -6.78%. Next, `Cc1ccc(Nc2cc(C)nc3nncn23)c(C)c1`: inactive: -4.95%; `CCOc1ccc(-c2nc3ccccc3c(=O)o2)cc1`: inactive: 31.3%; `O=C(C1CCC(Cn2c(=O)c3sccc3n(Cc3ccc(F)cc3)c2=O)CC1)N1CCOCC1` (stereo not drawn): inactive: -5.72%.

`O=c1[nH]c(C2CCCN(S(=O)(=O)c3ccccc3)C2)nc2c1nnn2Cc1ccc(OC(F)(F)F)cc1` (stereo not drawn): the activation is inactive: -1.44%.

As to `COc1ccc2c(c1)-c1nc(NC(=O)c3cc(OC)c(OC)c(OC)c3)sc1CC2`, the activation was inactive: -15.5%.

Turning to `CN1C(=O)C2(c3ccccc31)N(c1ccc(Br)cc1)C(=O)CS2(=O)=O` (stereo not drawn), the activation is inactive: -15.1%. For `CC(C)CCn1c(SCc2cccc(F)c2)nc2ccsc2c1=O`, the activation is inactive: -34.7%. As to `Cc1cc(C)cc(Nc2nc3cc(Cl)c(Cl)cc3nc2-n2nc(C)cc2C)c1`, the activation was inactive: 4.77%. With `Cn1cc(-c2cc3n(n2)CCC(=O)N3CCCC(=O)NCc2ccccc2Cl)c2ccccc21`, the activation was inactive: 7.67%. With `CN1C(=O)c2[nH]nc(-c3ccc(F)cc3)c2C1c1cccc(O)c1` (stereo not drawn), the activation is inactive: -4.31%. The same measure for `CCc1ccc2oc(C(=O)NCc3ccccc3)cc(=O)c2c1`: inactive: 22%; for `COc1cccc(NC(=O)CSc2nc(O)c(C/C=C/c3ccccc3)c(=O)[nH]2)c1`: inactive: 4.58%; for `COc1ccc(N2CCN(S(=O)(=O)c3ccc(-c4cc(C(F)(F)F)on4)s3)CC2)cc1`: inactive: -1.72%. Regarding `Cc1ccc(CCNC(=O)c2sc3ncccc3c2-n2cccc2)cc1`, the activation was inactive: -8.73%. As for `COc1cc(NC(=O)c2nc3cc(C)c(C)cc3n(C)c2=O)cc(OC)c1OC`, the activation is inactive: 21.6%. On to `Cc1cc(S(=O)(=O)Nc2cccc(-c3ccc(N4CCOCC4)nn3)c2)c(C)cc1Cl`, for which the activation is inactive: -8.54%.

Turning to `CCC(=O)Nc1cc(C(=O)NCc2ccc(C)cc2)ccc1S(=O)(=O)c1ccc(C)cc1`, the activation is inactive: -27.1%. With `NCCC1CCCC(CCN)N1` (stereo not drawn), the activation was inactive: -7.89%. Regarding `CCCC1O[C@@H]2C[C@H]3[C@@H]4CCC5=CC(=O)C=C[C@]5(C)[C@H]4[C@@H](O)C[C@]3(C)[C@]2(C(=O)CO)O1` (stereo partly drawn), the activation was inactive: -12%. Consider `Cc1ccc(C)c(CN2C(=O)c3ccccc3Sc3ccc(C(=O)NCc4ccco4)cc32)c1`, for which the activation is inactive: -22.2%.

For `Cc1cccc(OCc2ccc(-c3nc(C#N)c(N4CCN(c5ccccc5)CC4)o3)o2)c1`, the activation is inactive: -12.8%.

For the compound `Cc1cc(C)c2oc(C(=O)Nc3c(C(=O)c4ccc(F)cc4)oc4ccccc34)cc(=O)c2c1`, the activation is inactive: -3.4%. The same measure for `CCc1cccc(C)c1Nc1c(-c2ccc(N(C)C)cc2)nc2ncccn12`: inactive: -17.5%; for `CC1CCC(NC(=O)C2(C)Cc3ccccc3C(=O)N2Cc2ccccc2Cl)CC1` (stereo not drawn): inactive: -16.9%. Next, `Cc1cc(Cl)ccc1NC(=O)CCS(=O)(=O)c1cc2c(cc1C)NC(=O)CO2`: inactive: -25.4%; `CCN(CC)c1ccc(NC(=O)Cn2c(C)c3cnn(-c4ccccc4)c(=O)c3c2C)c(C)c1`: inactive: -16.9%.

Regarding `COC(=O)c1c(-c2cccs2)csc1NC(=O)c1cc(OC)cc(OC)c1`, the activation was inactive: -6.59%. Next, `O=C(NCCSc1c(-c2ccc(Br)cc2)[nH]c2ccccc12)c1ccc(S(=O)(=O)N2CCOCC2)cc1`: inactive: -10.7%. As to `Cc1ccc(CNC(=O)C(CC(C)C)N2Cc3ccccc3C2=O)cc1` (stereo not drawn), the activation was inactive: -9.48%. For the compound `Cc1cc(C)cc(NC(=O)C(Cc2ccccc2)N2Cc3ccccc3C2=O)c1` (stereo not drawn), the activation is inactive: -22.4%. On to `CCNC(=O)CCSc1nnc(-c2ccc(O)cc2)o1`, for which the activation was inactive: 42.7%. `COc1cccc(CNC(=O)Nc2cc(C(=O)NCc3cccc(F)c3)ccc2N2CCCC2)c1`: the activation was inactive: -27.4%. With `CCC(Oc1ccc(F)cc1)C(=O)Nc1cc(-c2ccc(C)cc2)no1` (stereo not drawn), the activation is inactive: -16.8%. The same measure for `CCOc1cc(CNC(=O)c2ccc(NC(=O)c3nsc4ccccc34)cc2)ccc1OC`: inactive: -13.7%; for `CCN(CC)c1ccc(NC(=O)c2cc(CN3CCCC3)on2)c(C)c1`: inactive: -12.3%.

On to `Cn1c(=O)c2ccccc2n2c(CCC(=O)N3CCN(c4cccc(Cl)c4)CC3)nnc12`, for which the activation is inactive: -2.84%. For the compound `CCOc1ccc(NC(=O)CC2C(=O)N(c3cccc(OC)c3)C(=O)N2C2CCCCC2)cc1` (stereo not drawn), the activation is inactive: -4.73%. For `Cc1cccc(NC(=O)CSc2nc(-c3cccs3)cc(C(F)(F)F)c2C#N)c1`, the activation was inactive: -1.55%.

Consider `CCN1CCN(c2csc3ccc(Cl)cc3c2=O)CC1`, for which the activation was inactive: -33.1%. As to `COc1ccc2c(C)c(CC(=O)NCCc3ccccc3)c(=O)oc2c1OC`, the activation is inactive: -1.53%. Take `Cc1cc(C)cc(N2C(=O)CC(c3ccc(C(F)(F)F)cc3)C3=C2COC3=O)c1` (stereo not drawn): the activation was inactive: -3.68%.

Turning to `COc1ccccc1C(=O)Nc1cc(-c2cccc(Br)c2)nn1-c1ccccc1`, the activation was inactive: -4.69%. `COc1ccc(Cl)cc1NC(=O)C(C)n1nnc2sc3c(c2c1=O)CCCC3` (stereo not drawn): the activation was inactive: -12.1%. In the case of `CCOc1ccc(NC(=O)Cn2nnc(C(=O)OC)c2C(=O)OC)cc1`, the activation is inactive: 11.4%. With `Cc1ccc(C(=O)NCC(=O)OCc2cc(=O)n3nc(C4CCCCC4)sc3n2)cc1`, the activation is inactive: -4.73%. As to `CCCCn1c(Oc2cccc(C(=O)OC)c2)nc2c1c(=O)n(C)c(=O)n2C`, the activation is inactive: -15.4%. On to `COc1ccc(Cn2c(SCC(=O)NCc3ccccc3)nc3ccccc32)cc1`, for which the activation is inactive: 3.57%. Consider `Cc1ccc2c(c1)C(c1ccc(F)cc1)N(C(=O)C(C)C)CC(=O)N2` (stereo not drawn), for which the activation is inactive: 1.01%.

In the case of `COc1ccc(C(=O)NC2(C(F)(F)F)C(=O)NC(C)=C2C#N)cc1` (stereo not drawn), the activation is inactive: 3.43%. On to `O=c1oc2ccc3ccccc3c2cc1-c1nnc(Nc2ccccc2)s1`, for which the activation was inactive: -3.32%.

In the case of `CCc1cccc(NC(=O)Cn2nc(CC)n3c(cc4cc(C)ccc43)c2=O)c1`, the activation is inactive: 13%. For the compound `CCCN(C(=O)CCn1cnc2onc(-c3ccc(F)cc3)c2c1=O)c1ccccc1C`, the activation was inactive: -8.4%. Turning to `Cc1cc(C)cc(C(=O)Nc2c3c(nn2-c2ccccc2C)CS(=O)(=O)C3)c1`, the activation is inactive: -3.03%. In the case of `Cc1ccc(Cl)cc1N1CCN(C(=O)Cn2nc(C)n3c(cc4sccc43)c2=O)CC1`, the activation is inactive: -0.301%.

Take `CCOC(=O)c1c(-c2ccccc2)csc1NC(=O)c1cc(-c2cccc(OC)c2)on1`: the activation was inactive: -6.54%. As for `O=C(Cn1nc2c(cc1=O)CCCC2)NCc1ccccc1Cl`, the activation was inactive: -6.36%. For the compound `Cc1ccc(C(=O)Nc2nnc(SCc3cc(=O)n4ccc(C)cc4n3)s2)cc1`, the activation was inactive: 2.83%.
